Data taken from the supplement of paper PMC4967469.
pIC50: −log10 of the molar value. A lower IC50 marks a more sensitive line; a fit beyond the top or the lowest dose is shown as a bound at that dose. AUC is the area under the same curve over the 256-fold range up to the top dose, as a fraction: 1 means no effect, lower means more sensitive. For some assays here: A top dose marked as inferred was calculated from the reported fits. For some assays here: Where an entry number is given, a second screen of the drug exists; the two often differ.

Assays:
Experiment in all cases: Viability of human cancer cell lines after 72 h of drug (GDSC screen)
[1] = compound: CC(C)[C@H](C(=O)Nc1ccc(C(=O)NO)cc1)c1ccccc1 [AR-42]; details: top dose 5.12 µM; top dose inferred
Protocol: (§1)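 Human cancer cell lines in 384-well plates, medium with 10% serum, drug for 72 h over a 256-fold dose range (nine 2-fold or five 4-fold steps up to the top dose). Adherent lines were fixed and stained with the nucleic acid dye Syto60, suspension lines read with resazurin; signal relative to control wells, capped at 0 and 100%. One two-parameter sigmoid per drug and line, fitted in a mixed model over all curves with the slope shared within a line.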

[2] = compound: CC(C)C[C@@H](C=O)NC(=O)[C@H](CC(C)C)NC(=O)[C@H](CC(C)C)NC(=O)OCc1ccccc1 [MG-132]; details: top dose 1 µM
Protocol: as §1

[3] = compound: Cc1ccc(Nc2nccc(N(C)c3ccc4c(C)n(C)nc4c3)n2)cc1S(N)(=O)=O [Pazopanib]; details: top dose 8 µM
Protocol: as §1

[4] = compound: CS(=O)(=O)N1CCN(Cc2cc3nc(-c4cccc5[nH]ncc45)nc(N4CCOCC4)c3s2)CC1 [GDC0941]; details: top dose 4 µM; screen: GDSC drug entry 1527; top dose inferred
Protocol: as §1

[5] = compound: C[C@]12O[C@H](C[C@]1(O)CO)n1c3ccccc3c3c4c(c5c6ccccc6n2c5c31)CNC4=O [CEP-701]; details: top dose 2 µM; top dose inferred
Protocol: as §1

[6] = compound: Cn1cc(C2=C(c3ccc(Cl)cc3Cl)C(=O)NC2=O)c2ccccc21 [SB 216763]; details: top dose 10 µM; top dose inferred
Protocol: as §1

“NCI-H2171 (small cell lung carcinoma, suspension)” was tested, and the AUC [1] was 0.471, the pIC50 [1] was 6.57 and the AUC [2] was 0.988. For the same cell line, the pIC50 [2] was less than 6.00, the AUC [3] was 0.989 and the pIC50 [3] was less than 5.10.
With CAL-148 (breast, suspension) the AUC [1] was 0.44, the pIC50 [1] was 6.65 and the AUC [2] was 0.942. It also gave a pIC50 [2] of less than 6.00, an AUC [3] of 0.983 and a pIC50 [3] of less than 5.10.
In the case of TE-441-T (rhabdomyosarcoma, adherent), the AUC [2] was 0.975, the pIC50 [2] was less than 6.00 and the AUC [3] was 0.989. It also gave a pIC50 [3] of less than 5.10.
With “NCI-H748 (small cell lung carcinoma, suspension)” the AUC [1] was 0.257, the pIC50 [1] was 7.28 and the AUC [2] was 0.896. The pIC50 [2] was less than 6.00, the AUC [3] was 0.974 and the pIC50 [3] was less than 5.10.
Cell Line “SKM-1 (haematopoietic neoplasm, suspension)” has an AUC [2] of 0.94, a pIC50 [2] of less than 6.00 and an AUC [4] of 0.673. For the same cell line, the pIC50 [4] was 6.10.
Cell Line IST-MES1 (mesothelioma, adherent) has an AUC [1] of 0.642, a pIC50 [1] of 6.10 and an AUC [2] of 0.826. It also gave a pIC50 [2] of 6.21, an AUC [3] of 0.92 and a pIC50 [3] of less than 5.10.
With KP-N-YS (neuroblastoma, adherent) the AUC [1] was 0.525, the pIC50 [1] was 6.42 and the AUC [2] was 0.981. It also gave a pIC50 [2] of less than 6.00, an AUC [3] of 0.981 and a pIC50 [3] of less than 5.10.
With SCC-3 (B-cell lymphoma, suspension) the AUC [1] was 0.521, the pIC50 [1] was 6.44 and the AUC [2] was 0.735. The pIC50 [2] was 6.63, the AUC [3] was 0.981 and the pIC50 [3] was less than 5.10.
For “NCI-H2196 (small cell lung carcinoma, adherent)”, the AUC [1] was 0.49, the pIC50 [1] was 6.52 and the AUC [2] was 0.931. The pIC50 [2] was less than 6.00, the AUC [3] was 0.97 and the pIC50 [3] was less than 5.10.
LNCaP-Clone-FGC (prostate, adherent) was tested, and the AUC [1] was 0.338, the pIC50 [1] was 6.97 and the AUC [2] was 0.953. The pIC50 [2] was less than 6.00, the AUC [3] was 0.855 and the pIC50 [3] was 5.11.
For ECC12 (stomach, suspension), the AUC [2] was 0.83 and the pIC50 [2] was 6.06.
EW-12 (Ewing sarcoma, suspension) showed an AUC [2] of 0.972 and a pIC50 [2] of less than 6.00.
For “NCI-H1299 (large cell lung carcinoma, adherent)”, the AUC [1] was 0.832, the pIC50 [1] was 5.36 and the AUC [2] was 0.974. For the same cell line, the pIC50 [2] was less than 6.00, the AUC [3] was 0.863 and the pIC50 [3] was less than 5.10.
HCC1599 (breast, suspension) showed an AUC [1] of 0.367, a pIC50 [1] of 6.89 and an AUC [2] of 0.978. For the same cell line, the pIC50 [2] was less than 6.00, the AUC [3] was 0.961 and the pIC50 [3] was less than 5.10.
Cell Line SUIT-2 (pancreas, adherent) has an AUC [1] of 0.516, a pIC50 [1] of 6.45 and an AUC [5] of 0.664. For the same cell line, the pIC50 [5] was 6.44, the AUC [6] was 0.986 and the pIC50 [6] was less than 5.00. The AUC [4] was 0.899, the pIC50 [4] was less than 5.40 and the AUC [3] was 0.941. It also gave a pIC50 [3] of less than 5.10.
T98G (glioma, adherent) was tested, and the AUC [1] was 0.68, the pIC50 [1] was 6.01 and the AUC [5] was 0.688. For the same cell line, the pIC50 [5] was 6.40, the AUC [6] was 0.896 and the pIC50 [6] was less than 5.00. The AUC [4] was 0.773, the pIC50 [4] was 5.84 and the AUC [3] was 0.878. For the same cell line, the pIC50 [3] was 5.15.
KU-19-19 (bladder, adherent) gave an AUC [1] of 0.55, a pIC50 [1] of 6.36 and an AUC [5] of 0.716. It also gave a pIC50 [5] of 6.29, an AUC [6] of 0.978 and a pIC50 [6] of less than 5.00. It also gave an AUC [4] of 0.94, a pIC50 [4] of less than 5.40 and an AUC [3] of 0.97. It also gave a pIC50 [3] of less than 5.10.
For “NCI-H128 (small cell lung carcinoma, suspension)”, the AUC [2] was 0.907 and the pIC50 [2] was less than 6.00.
Work on “SBC-3 (small cell lung carcinoma, adherent)” yielded an AUC [1] of 0.252, a pIC50 [1] of 7.17 and an AUC [5] of 0.773. The pIC50 [5] was 6.15, the AUC [6] was 0.989 and the pIC50 [6] was less than 5.00. The AUC [4] was 0.883, the pIC50 [4] was 5.44 and the AUC [3] was 0.69. It also gave a pIC50 [3] of 5.79.
Work on U251 (glioma, adherent) yielded an AUC [1] of 0.369, a pIC50 [1] of 6.85 and an AUC [5] of 0.945. For the same cell line, the pIC50 [5] was less than 5.70, the AUC [6] was 0.894 and the pIC50 [6] was less than 5.00. For the same cell line, the AUC [4] was 0.922, the pIC50 [4] was less than 5.40 and the AUC [3] was 0.945. For the same cell line, the pIC50 [3] was less than 5.10.
RKN (ovary, adherent) was tested, and the AUC [1] was 0.77, the pIC50 [1] was 5.69 and the AUC [5] was 0.724. It also gave a pIC50 [5] of 6.25, an AUC [6] of 0.986 and a pIC50 [6] of less than 5.00. For the same cell line, the AUC [4] was 0.725, the pIC50 [4] was 5.95 and the AUC [3] was 0.971. For the same cell line, the pIC50 [3] was less than 5.10.
Cell Line YAPC (pancreas, adherent) has an AUC [1] of 0.877, a pIC50 [1] of less than 5.29 and an AUC [5] of 0.876. For the same cell line, the pIC50 [5] was less than 5.70, the AUC [6] was 0.983 and the pIC50 [6] was less than 5.00. The AUC [4] was 0.827, the pIC50 [4] was 5.48 and the AUC [3] was 0.957. The pIC50 [3] was less than 5.10.
MC-IXC (neuroblastoma, adherent) was tested, and the AUC [1] was 0.477, the pIC50 [1] was 6.55 and the AUC [5] was 0.21. It also gave a pIC50 [5] of 7.62, an AUC [6] of 0.976 and a pIC50 [6] of less than 5.00. It also gave an AUC [4] of 0.984, a pIC50 [4] of less than 5.40 and an AUC [3] of 0.473. The pIC50 [3] was 6.37.
FTC-133 (thyroid, adherent) gave an AUC [1] of 0.805, a pIC50 [1] of 5.54 and an AUC [5] of 0.546. It also gave a pIC50 [5] of 6.77, an AUC [6] of 0.976 and a pIC50 [6] of less than 5.00. The AUC [4] was 0.917, the pIC50 [4] was less than 5.40 and the AUC [3] was 0.939. The pIC50 [3] was less than 5.10.
In the case of SW780 (bladder, adherent), the AUC [1] was 0.944, the pIC50 [1] was less than 5.29 and the AUC [5] was 0.645. For the same cell line, the AUC [6] was 0.986, the pIC50 [6] was less than 5.00 and the AUC [4] was 0.642. It also gave a pIC50 [4] of 6.19, an AUC [3] of 0.972 and a pIC50 [3] of less than 5.10.
Cell Line “LOUCY (T-cell lymphoblastic leukaemia, suspension)” has an AUC [1] of 0.409, a pIC50 [1] of 6.72 and an AUC [5] of 0.657. The pIC50 [5] was 6.51, the AUC [6] was 0.991 and the pIC50 [6] was less than 5.00. For the same cell line, the AUC [4] was 0.817, the pIC50 [4] was 5.76 and the AUC [3] was 0.99. It also gave a pIC50 [3] of less than 5.10.
OVMIU (ovary, adherent) gave an AUC [1] of 0.536, a pIC50 [1] of 6.39 and an AUC [5] of 0.782. It also gave a pIC50 [5] of 5.97, an AUC [6] of 0.961 and a pIC50 [6] of less than 5.00. For the same cell line, the AUC [4] was 0.632, the pIC50 [4] was 6.20 and the AUC [3] was 0.963. The pIC50 [3] was less than 5.10.
LN-405 (glioma, adherent) was tested, and the AUC [1] was 0.678, the pIC50 [1] was 5.94 and the AUC [5] was 0.792. It also gave a pIC50 [5] of 5.93, an AUC [6] of 0.966 and a pIC50 [6] of less than 5.00. The AUC [4] was 0.796, the pIC50 [4] was 5.61 and the AUC [3] was 0.852. For the same cell line, the pIC50 [3] was less than 5.10.
CAL-27 (head and neck, adherent) was tested, and the AUC [1] was 0.523, the pIC50 [1] was 6.43 and the AUC [5] was 0.591. For the same cell line, the pIC50 [5] was 6.65, the AUC [6] was 0.844 and the pIC50 [6] was 5.13. It also gave an AUC [4] of 0.589, a pIC50 [4] of 6.36 and an AUC [3] of 0.985. It also gave a pIC50 [3] of less than 5.10.
GI-ME-N (neuroblastoma, adherent) showed an AUC [1] of 0.434, a pIC50 [1] of 6.70 and an AUC [5] of 0.539. For the same cell line, the pIC50 [5] was 6.78, the AUC [6] was 0.976 and the pIC50 [6] was less than 5.00. For the same cell line, the AUC [4] was 0.736, the pIC50 [4] was 5.82 and the AUC [3] was 0.812. The pIC50 [3] was 5.20.
HT-1197 (bladder, adherent) was tested, and the AUC [1] was 0.593, the pIC50 [1] was 6.22 and the AUC [5] was 0.95. The pIC50 [5] was less than 5.70, the AUC [6] was 0.947 and the pIC50 [6] was less than 5.00. It also gave an AUC [4] of 0.711, a pIC50 [4] of 5.95 and an AUC [3] of 0.878. For the same cell line, the pIC50 [3] was less than 5.10.
